For 19 molecules, enrichment score results are on record in the supplement of paper PMC10369915.

The other results are listed elsewhere or left out. Rule as the data show it: active = 3.2 or more and inactive = the rest. Most of these values are background signal.

Some targets named below: SHP2 C-SH2 domain E139D; SHP2 N-SH2 domain L43F; SHP2 N-SH2 domain T42A; SHP2 N-SH2 domain T52S.
Test in all cases: enrichment score (SH2-bound / input frequency) (ratio); bacterial display of known human phosphotyrosine sites (pTyr-Var adds point mutants) read by sequencing; higher = stronger binding; tyrosines were phosphorylated by kinases first
What all share (conditions): peptide library: pTyr-Var

Assay [1] deals with SHP2 C-SH2 domain wild-type.
For assay [2], the target named is SHP2 N-SH2 domain wild-type.
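Also: displayed peptides selected on beads carrying the immobilized SH2 domain, with library peptides lacking any tyrosine serving as negative controls.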

Regarding PYRSIYFSSPK [MPG_Y75], the enrichment score with SHP2 C-SH2 domain E139D was inactive: 0.887; in assay [1] it was inactive: 0.799; with SHP2 N-SH2 domain L43F, inactive: 0.924; with SHP2 N-SH2 domain T42A, inactive: 1.14; with SHP2 N-SH2 domain T52S it was inactive: 1.08; in assay [2], inactive: 0.667.
In the case of TRDVNYGWTIR [MT-CYB_Y75_I78T], the enrichment score is inactive: 0.519 with SHP2 C-SH2 domain E139D; inactive: 0.525 in assay [1]; inactive: 0.827 in the assay with SHP2 N-SH2 domain L43F; inactive: 0.921 with SHP2 N-SH2 domain T42A; inactive: 0.645 with SHP2 N-SH2 domain T52S; inactive: 0.863 in assay [2].
Take GESQGYDIMEA [MSH2_Y863_P868A]: the enrichment score is inactive: 0.446 in the assay with SHP2 C-SH2 domain E139D; inactive: 0.397 in assay [1]; inactive: 0.375 in the assay with SHP2 N-SH2 domain L43F; inactive: 0.405 with SHP2 N-SH2 domain T42A; inactive: 0.429 with SHP2 N-SH2 domain T52S; inactive: 0.459 in assay [2].
For the molecule IITDYYVDMKF [MPP4_Y567_V562I], the enrichment score with SHP2 C-SH2 domain E139D is inactive: 1.13; in assay [1], inactive: 1.25; in the assay with SHP2 N-SH2 domain L43F, inactive: 1.34; with SHP2 N-SH2 domain T42A, inactive: 1.29; in the assay with SHP2 N-SH2 domain T52S, inactive: 1.21; in assay [2], inactive: 1.41.
As for TLNTNYHLPPS [MT-ATP8_Y33_M28T], the enrichment score with SHP2 C-SH2 domain E139D was inactive: 1.02; in assay [1] it was inactive: 0.683; in the assay with SHP2 N-SH2 domain L43F, inactive: 0.667; in the assay with SHP2 N-SH2 domain T42A, inactive: 0.697; in the assay with SHP2 N-SH2 domain T52S, inactive: 0.828; in assay [2] it was inactive: 0.747.
Take TTHRGYDSDNP [MMUT_Y146_A141T]: the enrichment score with SHP2 C-SH2 domain E139D was inactive: 0.628; in assay [1], inactive: 1.11; with SHP2 N-SH2 domain L43F, inactive: 0.799; with SHP2 N-SH2 domain T42A it was inactive: 0.69; with SHP2 N-SH2 domain T52S, inactive: 0.628; in assay [2], inactive: 0.657.
Take TRDVNYGWIIR [MT-CYB_Y75]: the enrichment score with SHP2 C-SH2 domain E139D is inactive: 0.855; in assay [1], inactive: 0.974; with SHP2 N-SH2 domain L43F, inactive: 1.14; with SHP2 N-SH2 domain T42A it was inactive: 0.819; with SHP2 N-SH2 domain T52S, inactive: 0.742; in assay [2] it was inactive: 0.927.
For the molecule ARGMEYLAEQK [MST1R_Y1198_G1195S], the enrichment score with SHP2 C-SH2 domain E139D is inactive: 0.682; in assay [1] it was inactive: 0.755; in the assay with SHP2 N-SH2 domain L43F it was inactive: 0.673; in the assay with SHP2 N-SH2 domain T42A, inactive: 0.48; with SHP2 N-SH2 domain T52S, inactive: 0.743; in assay [2] it was inactive: 0.683.
In the case of EVVGKYSVHNA [MLH1_Y183_R182K], the enrichment score was inactive: 0.691 with SHP2 C-SH2 domain E139D; inactive: 0.844 in assay [1]; inactive: 0.714 with SHP2 N-SH2 domain L43F; inactive: 0.823 in the assay with SHP2 N-SH2 domain T42A; inactive: 0.762 with SHP2 N-SH2 domain T52S; inactive: 0.744 in assay [2].
Turning to RDMNACIRPSP [MMAA_Y207_Y207C], the enrichment score with SHP2 C-SH2 domain E139D was inactive: 0.616; in assay [1], inactive: 0.566; with SHP2 N-SH2 domain L43F it was inactive: 0.544; with SHP2 N-SH2 domain T42A, inactive: 0.561; with SHP2 N-SH2 domain T52S, inactive: 0.853; in assay [2], inactive: 0.568.
Regarding TRDVNYGWIIH [MT-CYB_Y75_R80H], the enrichment score with SHP2 C-SH2 domain E139D is inactive: 1.1; in assay [1], inactive: 1.04; in the assay with SHP2 N-SH2 domain L43F, inactive: 1.27; with SHP2 N-SH2 domain T42A it was inactive: 1.63; in the assay with SHP2 N-SH2 domain T52S, inactive: 1.48; in assay [2], inactive: 1.13.
For the molecule KFLENYFDLEK [MMP3_Y41_K45E_YF], the enrichment score is inactive: 1.78 with SHP2 C-SH2 domain E139D; inactive: 1.34 in assay [1]; inactive: 1.34 with SHP2 N-SH2 domain L43F; inactive: 1.77 with SHP2 N-SH2 domain T42A; inactive: 1.77 with SHP2 N-SH2 domain T52S; inactive: 1.71 in assay [2].
For TNYSLYLRSLE [MTM1_Y71_R69S], the enrichment score with SHP2 C-SH2 domain E139D was inactive: 1.83; in assay [1], active: 3.8; with SHP2 N-SH2 domain L43F, inactive: 0.89; with SHP2 N-SH2 domain T42A, inactive: 0.868; with SHP2 N-SH2 domain T52S, inactive: 1.19; in assay [2], inactive: 0.836.
LWPIWYRCHRP [MRGPRX1_Y130]: the enrichment score is inactive: 0.508 with SHP2 C-SH2 domain E139D; inactive: 0.509 in assay [1]; inactive: 0.478 in the assay with SHP2 N-SH2 domain L43F; inactive: 0.409 with SHP2 N-SH2 domain T42A; inactive: 0.59 with SHP2 N-SH2 domain T52S; inactive: 0.364 in assay [2].
On to TQIGQYGNGLK [MORC2_Y100], for which the enrichment score with SHP2 C-SH2 domain E139D was inactive: 1.11; in assay [1] it was inactive: 0.627; with SHP2 N-SH2 domain L43F it was inactive: 0.57; with SHP2 N-SH2 domain T42A, inactive: 0.582; with SHP2 N-SH2 domain T52S, inactive: 0.833; in assay [2], inactive: 0.706.
In the case of DDSNLYINVKL [MTHFD1_Y52], the enrichment score with SHP2 C-SH2 domain E139D was inactive: 0.81; in assay [1], inactive: 1.21; with SHP2 N-SH2 domain L43F, inactive: 0.982; with SHP2 N-SH2 domain T42A, inactive: 0.864; with SHP2 N-SH2 domain T52S it was inactive: 0.827; in assay [2] it was inactive: 1.23.
Turning to STTSDYQWDFS [MTDH_Y364_V368F], the enrichment score with SHP2 C-SH2 domain E139D is inactive: 0.976; in assay [1] it was inactive: 0.819; with SHP2 N-SH2 domain L43F, inactive: 0.908; with SHP2 N-SH2 domain T42A, inactive: 0.853; with SHP2 N-SH2 domain T52S, inactive: 1.02; in assay [2], inactive: 0.923.
As for ARSMEYLAEQK [MST1R_Y1198], the enrichment score in the assay with SHP2 C-SH2 domain E139D was inactive: 1.25; in assay [1] it was inactive: 0.817; with SHP2 N-SH2 domain L43F it was inactive: 0.9; with SHP2 N-SH2 domain T42A it was inactive: 0.959; with SHP2 N-SH2 domain T52S, inactive: 0.942; in assay [2], inactive: 1.13.
Take AEDKPYAELWT [MPI_Y46_M51T]: the enrichment score with SHP2 C-SH2 domain E139D was inactive: 0.702; in assay [1] it was inactive: 0.882; with SHP2 N-SH2 domain L43F, inactive: 1.02; with SHP2 N-SH2 domain T42A it was inactive: 2.62; with SHP2 N-SH2 domain T52S it was inactive: 1.09; in assay [2], inactive: 0.767.
